According to ChEMBL document CHEMBL4888484, “Replenishing the malaria drug discovery pipeline: Screening and hit evaluation of the MMV Hit Generation Library 1 (HGL1) against asexual blood stage Plasmodium falciparum ,using a nano luciferase reporter read-out” (2022):
About 540 (0.36%) of roughly 150,000 compounds showed an effect of 50% or more. The list shows a part of the results.

What follows are molecules tested on Plasmodium falciparum (assay: Primary screen in NF54 nanoGlo assay, in single point, at 2uM, 72h; a lower Z score goes with more inhibition). Conditions: timepoint 72 hour.
Assay type: functional, Erythrocyte

Compound	% Inhibition [%]	Z score
Cc1nc(C)c(CC(=O)N[C@H]2C[C@H](c3cc(=O)[nH]cn3)C2)s1	2	-0.42
Cc1ccc([C@H]2c3cc(OCc4ccc(C(=O)N(C)Cc5ccco5)o4)ccc3CCN2C(=O)CC(C)C)cc1	-11	1.67
CCNc1ncc(C(=O)N2CCN(c3ccccc3OC)CC2)cn1	-13	2.14
CN(CC1CC1)C(=O)CCNS(=O)(=O)c1ccc(Cl)cc1	-1	0.14
Cc1[nH]c2ccc(Cl)c3c2c1CCN1C(=O)OC(C)(C)[C@@]31C	-17	1.81
CC[C@H](NC(=O)N1CCC2(CC1)CN(C)CCCN2C)c1ccc(C)cc1	-1	0.11
CN1OCC(S(=O)(=O)NC(C)(C)C)C1c1cccc(OCc2ccccc2)c1 (stereo not drawn)	-10	1.42
COc1nn(C)cc1NC(=O)N1Cc2ccccc2C(C)(C)C1	16	-1.61
CC(O)CN1CCN(CC(O)COCc2cccs2)CC1C (stereo not drawn)	6	-0.47
CC(=O)NCc1nc([C@H]2CCOC2)nn1-c1ccc2nc(C)sc2c1	-9	1.73
Cc1cc(-c2cn3cc(C(=O)NCCO)nc3c(=O)n2CC2CC2)c(C)o1	-11	1.49
COc1ccc2c(c1)CCc1c(C(=O)NCCCN(C)C3CCCCC3)n[nH]c1-2	-22	1.92
COc1cc2nc(N3CC[C@@H](O)[C@@H](O)C3)cc(C)c2cc1OC	10	-1.23
OCCn1ccc([C@H]2CCCN(Cc3cc4ccccc4o3)C2)n1	-7	0.72
O=C1NC2(CCCCC2)C(=O)N1CN1CCc2ccccc2C1	5	-0.73
CCCN(C(=O)c1ccncc1F)[C@H]1CC(=O)N(C)C1=O	-19	3.71
Cc1cc(C(=O)N2CCN(C3CC3)c3ccc(Cl)cc32)c(C)nn1	-10	1.9
c1ccc2oc(-c3ccnc4nncn34)cc2c1	38	-4.96
CC[C@H](C)NC(=O)c1cccc(Nc2c(Oc3ccccc3OC)cnn(C)c2=O)c1	1	-0.2
O=c1scnn1Cc1cc(F)cc(F)c1	-8	1.14
Cc1cc(C(=O)N[C@H]2C[C@H](c3ccc(F)c(Br)c3)C2)[nH]n1	2	-0.37
O=C1OC2CC1N(C(=O)Cc1noc3ccccc13)C2 (stereo not drawn)	-2	0.33
Cc1ccc(NC(=O)Cn2c(=O)c3cc(C4CC4)nn3c3ncccc32)cc1	2	-0.39
Cc1nnc(C(=O)Nc2cccc(C(=O)NC3CCCCC3)c2)s1	-10	1.57
Cc1cc(=O)n2c3c(cc(S(=O)(=O)NCc4ccccc4)cc13)CCC2	-11	1.41
Cc1ccc(C(=O)N2CCC[C@@H]2CO)c(=O)n1C	-25	2.28
CCOc1ccc(CN2CCCn3nc(CNC(=O)C4CCC4)cc3C2)cc1	-13	2.26

Compound	% Inhibition [%]	Z score
CCCc1cc(C(=O)N2CCCCCC2)cs1	31	-4.37
Cc1cc(N[C@H]2CCc3ccccc3C2)ccc1C(N)=O	8	-1.53
CNS(=O)(=O)c1cccc(NC(=O)N2CCC(C)(N3CCOCC3)CC2)c1	1	-0.26
O=C(Nc1nnc(C2CC2)s1)c1ccc2c(c1)OCCO2	5	-0.89
CCn1ncc(Br)c1C(=O)Nc1cnc(C(C)C)nc1	-9	1.5
O=C(Cn1ccc2ccccc2c1=O)N1CCC[C@H](C2CC2)C1	-1	0.19
Cc1ccccc1-c1ccccc1C(=O)N1CCCn2nncc2C1	0	-0.02
CC(C)c1noc([C@@H]2CCCN2Cc2nc3c(cnn3C)c(=O)[nH]2)n1	3	-0.52
O=C(O)[C@H]1CC12CCN(Cc1cccc(C(F)F)c1)CC2	2	-0.23
Cc1cc(C(=O)N2CCC[C@H](c3cccnc3)C2)ns1	-4	0.7
COc1cccc(-c2cc(=O)n(CC(=O)NCc3ccc(Cl)cc3)c(C)n2)c1	5	-0.54
Cc1cc(C)n(-c2nnc3c4ccccc4n(CC#N)c3n2)n1	-2	0.33
CCc1cc(C(=O)N2CCC[C@@H]2CO)on1	-1	0.27
Cc1[nH]c2ccc(CNc3ccc(C(=O)N(C)C)cn3)cc2c1C	-8	1.09
CCn1cc(CN(C)C(=O)Cc2nonc2C)c(C)n1	-6	0.99
CC(=O)NCc1csc(C2CCN(S(=O)(=O)c3ccc(Cl)cc3)CC2)n1	-5	0.67
CS(=O)(=O)N1C[C@H]2CC[C@@H](C1)N(CC(=O)N1CCc3ccccc31)C2	-9	1.92
O=C(c1cnn2c1CCCC2)N1CCc2ccc(F)cc2C1	-4	0.65
CC(C)CNC(=O)CN(C)C1CCCN(C(=O)c2cn3c(n2)CC(C)CC3)C1 (stereo not drawn)	-2	0.29
CCc1cc(N(CCCO)Cc2ccccn2)n2ncnc2n1	-1	0.15
O=C([C@H]1CCCS(=O)(=O)C1)N1CC(Cc2ccoc2)C1	0	0.04
Cc1noc(CNC(=O)[C@H]2CCC(F)(F)C2)n1	34	-3.85
CCc1[nH]ncc1C(=O)Nc1ccc(OCC(F)(F)F)c(C)c1	17	-2.24
O=C(Nc1ccc(Cl)c(F)c1)c1cc2nc(N3CCCCC3)sc2s1	-4	0.65
Cc1nccc(NC(=O)c2c(F)cccc2Br)n1	2	-0.33
CC(C)CN(CC(=O)N(CCc1ccccc1)Cc1ccco1)S(C)(=O)=O	9	-1.75
COc1cc(OC)nc(-c2cccc(C(=O)N3CCN(C)C(=O)C3)c2)n1	-10	1.47
